Reference: article PMC4336329 (PLoS ONE, 2015)
Among all 310,000 compounds or so, about 2,200 (0.71%) showed an effect of 50% or more. The effect is printed as a negative number. The list shows a part of the results.

target: human ether-à-go-go-related gene (hERG) potassium channel (human, UniProt Q12809); assay: primary screen, population patch clamp on CHO cells stably expressing hERG
Sequence (Q12809 whole entry, looked up): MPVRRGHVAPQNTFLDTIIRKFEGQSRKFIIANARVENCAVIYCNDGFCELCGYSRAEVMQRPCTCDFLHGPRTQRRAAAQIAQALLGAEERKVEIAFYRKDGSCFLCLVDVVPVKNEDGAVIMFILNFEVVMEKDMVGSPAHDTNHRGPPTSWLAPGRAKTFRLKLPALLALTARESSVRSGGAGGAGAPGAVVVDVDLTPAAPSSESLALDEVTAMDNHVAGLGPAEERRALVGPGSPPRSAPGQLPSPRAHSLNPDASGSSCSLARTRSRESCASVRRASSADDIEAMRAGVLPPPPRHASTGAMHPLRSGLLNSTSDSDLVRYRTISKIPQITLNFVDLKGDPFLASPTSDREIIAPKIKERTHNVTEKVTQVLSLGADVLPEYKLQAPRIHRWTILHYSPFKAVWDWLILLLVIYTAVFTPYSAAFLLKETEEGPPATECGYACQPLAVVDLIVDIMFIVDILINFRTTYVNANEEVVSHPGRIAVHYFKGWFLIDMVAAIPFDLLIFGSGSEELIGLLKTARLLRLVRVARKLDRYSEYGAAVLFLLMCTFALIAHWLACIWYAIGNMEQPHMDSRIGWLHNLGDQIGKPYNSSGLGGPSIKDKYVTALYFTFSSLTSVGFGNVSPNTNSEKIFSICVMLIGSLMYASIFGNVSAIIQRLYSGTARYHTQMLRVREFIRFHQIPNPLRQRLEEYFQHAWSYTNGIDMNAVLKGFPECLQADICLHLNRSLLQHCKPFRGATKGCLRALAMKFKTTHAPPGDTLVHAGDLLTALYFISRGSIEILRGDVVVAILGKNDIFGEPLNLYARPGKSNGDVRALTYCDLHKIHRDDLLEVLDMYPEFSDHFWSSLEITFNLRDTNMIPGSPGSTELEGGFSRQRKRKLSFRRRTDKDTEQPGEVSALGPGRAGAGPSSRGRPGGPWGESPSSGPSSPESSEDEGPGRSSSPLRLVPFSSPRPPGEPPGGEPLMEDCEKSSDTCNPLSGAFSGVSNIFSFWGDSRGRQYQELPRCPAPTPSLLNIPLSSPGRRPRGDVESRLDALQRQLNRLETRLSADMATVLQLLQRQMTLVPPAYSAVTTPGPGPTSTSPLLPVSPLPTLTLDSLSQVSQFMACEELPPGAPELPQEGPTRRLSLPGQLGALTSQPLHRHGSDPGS

Structure (SMILES) | hERG current change (%, negative = inhibition) at 1uM [%]
COc1cc(NC(=S)N2CCCC(CO)C2)c(OC)cc1Cl (stereo not drawn) | 8.11
Oc1ccc(C2Nc3cccc4cccc(c34)N2)c(O)c1 | 17.4
CCCn1c2ccccc2c2nnc(SC(CC)C(=O)Nc3cc(C)on3)nc21 (stereo not drawn) | -0.818
COC(=O)c1cccc(NC(=O)CN2CCc3ccccc3C2)c1 | 11.9
Fc1ccc(CN2CCN3CCCC3C2C2CCCCC2)cc1F (stereo not drawn) | 9.81
COc1cc2c(cc1OC)C(=S)NC1(CCCC1)C2 | 10.3
COc1ccccc1N1CCN(Cc2ccc(Cl)cc2Cl)CC1 | -6.43
COc1ccc(NC(=O)COC(=O)Cc2ccccc2[N+](=O)[O-])cc1OC | 18.8
COc1ccc(OC(C)C(=O)Nc2cccc(OC)c2)cc1 (stereo not drawn) | 9.38
CCOc1ccc(C(=O)CN2C(=O)NC3(CCCCCC3)C2=O)cc1 | 9.88
NC(=O)c1ccc(NC(=O)CSc2nnc(-c3ccc4c(c3)OCO4)o2)cc1 | 8.8
COc1ccccc1NC(=O)N1CCN(c2ccccc2F)CC1 | 14.1
O=C(c1cccc(-c2ccc(O)cc2)c1)N1CCN(c2ccc(F)cc2)CC1 | 17.1
Cc1[nH]n(-c2ccccc2)c(=O)c1C(c1ccc([N+](=O)[O-])cc1)c1c(C)[nH]n(-c2ccccc2)c1=O | 10.5
COCCNC(=S)N/N=C/c1ccc([N+](=O)[O-])cc1 | 12
CCOC(=O)c1c(NC(=O)Cn2nnc(-c3ccc(Cl)cc3)n2)sc(C)c1C | 10.9
O=C(CSc1nc2ccccc2o1)Nc1nc(-c2ccccc2)c(-c2ccccc2)s1 | 9.62
CCCCN(C(=O)/C=C/c1ccco1)c1c(N)n(CC(C)C)c(=O)[nH]c1=O | 21
Cc1ccc(C(=O)N2CCN(c3ccccc3)CC2)cc1C | 9.14

Structure (SMILES) | hERG current change (%, negative = inhibition) at 1uM [%]
COc1ccc(/C=N/N(Cc2ccccc2)c2ccccc2)cc1O | 10.7
O=C(c1ccc(COc2ccc(Cl)cc2)cc1)N1CCCCC1 | 16.6
Cc1cc(NC(=O)c2cnn3c(C(F)(F)F)cc(-c4ccccc4)nc23)no1 | 1.77
O=C(Nc1cc(Cl)ccc1Cl)C1CC(=O)N(c2ccccc2)C1 (stereo not drawn) | 11
Cc1ccc(-c2nn[nH]n2)cc1 | -4.43
COC(=O)CC1SC(=O)NC1=Nc1cccc(C)c1 (stereo not drawn) | 13.5
O.O=C(O)c1cc(=O)c2c(Cl)cc(Cl)cc2[nH]1 | 8.2
CCOC(=O)Cn1c(=O)n(Cc2ccco2)c(=O)c2ccc(C(=O)NC3CCCC3)cc21 | -8.71
O=C(Nc1cc(S(=O)(=O)N2CCOCC2)ccc1N1CCCC1)C1COc2ccccc2O1 (stereo not drawn) | 4.92
Cc1cc(C)n(CCC(=O)N2CCCC(N3CCN(c4cccc(Cl)c4)CC3)C2)n1 (stereo not drawn) | 4.93
CN1/C(=C\C(=O)Nc2ccc(F)cc2)C(C)(C)c2ccccc21 | -0.0779
O=C(CCc1nnc(Cc2c[nH]c3ccccc23)o1)NCC1CC12CCCCC2 (stereo not drawn) | 6.98
O=c1[nH]nc(CNc2cccc(C(F)(F)F)c2)c2ccccc12 | -1.17
COc1cccc(NC(=O)Cn2c(CCC(=O)O)ccc2-c2ccccc2)c1 | 13.2
Cc1cccn2c(=O)nc(SCC(=O)c3ccccc3)nc12 | 4.8
COc1ccc(N2CCN(c3oc(COc4ccc(Cl)cc4Cl)nc3C#N)CC2)cc1 | -13.1
O=C(Nc1ccccc1C(=O)N/N=C/c1ccco1)c1ccccc1 | -0.508
N#Cc1c(-c2ccccc2Cl)noc1/C=C/Nc1ccc(C(=O)O)cc1 | 11.7
CCOC(=O)C1=CC[C@H]2c3c(c4ccccc4n3C)C(=O)C1N2C(=O)OC(C)(C)C | 8.93

Structure (SMILES) | hERG current change (%, negative = inhibition) at 1uM [%]
CCC(=O)N1CCc2cc(S(=O)(=O)CCC(=O)Nc3ccc(F)c(F)c3)ccc21 | 8.69
Cc1cc(C(=O)CN2C(=O)NC(Cc3c[nH]c4ccccc34)C2=O)c(C)n1C (stereo not drawn) | 14
O=C(Oc1cccnc1)c1cccc(Cl)c1 | 14.7
Cn1ncc2c(=O)n(/N=C/c3ccccc3)cnc21 | 15.6
O=C(Nc1ccc2ccccc2c1)c1ccccc1F | 15.9
COc1cccc(/C=C/C(=O)OCC(=O)c2c[nH]c3ccccc23)c1 | 8.65
COc1ccc(CCNC(=O)c2cc3c(=O)n4cccc(C)c4nc3n(Cc3ccco3)c2=N)cc1OC | -21.8
Cc1c[n+](CC(=O)c2ccccc2)cs1.[Br-] | 16.1
COc1ccccc1C(=O)NCCC(=O)NCC(c1ccccc1)N(C)C (stereo not drawn) | 2.94
CCc1cccc(NC(=O)CCCSc2nc3ccccc3[nH]2)c1 | 4.54
CCn1cc(CNCc2cn(-c3ccccc3C)nc2-c2ccc(OC)c(F)c2)cn1 | -3.6
O=C(O)C1CCCN1C(=O)Nc1ccc(Cl)cc1 (stereo not drawn) | 14.1
CC(N=C1NS(=O)(=O)c2ccccc21)C(=O)Nc1ccc(F)cc1Cl (stereo not drawn) | 6.09
O=c1[nH]c2cc3ccccc3cc2nc1C(F)(F)F | 16.2
CN(C)CCCNCCCNC(=O)c1ccco1.O=C(O)/C=C/C(=O)O | 8.9
CCn1c(CNC(=O)c2ccco2)nnc1SCC(=O)Nc1ccc(Br)cc1F | -24.6
CC(NCc1ccccc1)C1COc2ccccc2O1 (stereo not drawn) | 8.41
Cc1c(CC(C)C)nc(N)c(C#N)c1-c1ccccc1 | 11
O=C(Cn1nnc(-c2ccccc2)n1)OCc1csc(-c2ccccc2)n1 | 2.78
